{"source": "the supplement of paper PMC3724861", "note": "The other results are listed elsewhere or left out."}
{"tested_on": "T1, Caupolican (Caup) homeodomain DNA-binding domain", "T1 sequence": "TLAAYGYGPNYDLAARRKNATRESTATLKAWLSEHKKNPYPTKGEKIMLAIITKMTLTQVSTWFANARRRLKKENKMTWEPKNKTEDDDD", "test": "PBM E-score (8-mer, recovered from the published 9-mer minima) (E-score (dimensionless, -0.5 to 0.5)); Drosophila protein; higher = stronger relative binding preference, active = 0.31 or more", "summary_of_the_method": "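An enrichment score, with higher meaning stronger, expresses relative binding preference for each short DNA word. The protein used was Caup's homeodomain DNA-binding domain (residues 214-303), produced by in vitro transcription and translation and tested at 100 nM on custom-designed protein binding microarrays. The 8-mer values were recovered from published 9-mer scores, each equal to the lower of its two constituent 8-mer scores.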"}
{"sequence": "GAGGAGGA", "PBM E-score": "inactive: -0.0583"}
{"sequence": "GCGGAAAA", "PBM E-score": "inactive: -0.0703"}
{"sequence": "AAGACAAC", "PBM E-score": "inactive: 0.222"}
{"sequence": "GCAAGGAC", "PBM E-score": "inactive: -0.0784"}
{"sequence": "GCACCTGA", "PBM E-score": "inactive: -0.0716"}
{"sequence": "ATTTGACC", "PBM E-score": "inactive: -0.0206"}
{"sequence": "AAGTCTAG", "PBM E-score": "inactive: -0.0142"}
{"sequence": "ACCATGAC", "PBM E-score": "inactive: 0.0507"}
{"sequence": "ACAGAACT", "PBM E-score": "inactive: 0.126"}
{"sequence": "AACGATGG", "PBM E-score": "inactive: -0.0529"}
{"sequence": "ACCCTGAT", "PBM E-score": "inactive: -0.0425"}
{"sequence": "AGATGAGA", "PBM E-score": "inactive: -0.0051"}
{"sequence": "CTGATATC", "PBM E-score": "inactive: 0.162"}
{"sequence": "AATCTAAA", "PBM E-score": "inactive: -0.00549"}
{"sequence": "AGGCAAAC", "PBM E-score": "inactive: -0.0423"}
{"sequence": "ACTTAGCG", "PBM E-score": "inactive: 0.00663"}
{"sequence": "ATAAGGGC", "PBM E-score": "inactive: -0.0994"}
{"sequence": "ATCACCAC", "PBM E-score": "inactive: 0.0868"}
{"sequence": "CACCGCTC", "PBM E-score": "inactive: -0.114"}
{"sequence": "ACTTTGAA", "PBM E-score": "inactive: 0.0724"}
{"sequence": "GTCGAACA", "PBM E-score": "inactive: 0.309"}
{"sequence": "CAGTAGTC", "PBM E-score": "inactive: -0.0411"}
{"sequence": "ATGATATG", "PBM E-score": "inactive: 0.167"}
{"sequence": "CCTTCTCG", "PBM E-score": "inactive: -0.105"}
{"sequence": "GGAGTGAC", "PBM E-score": "inactive: 0.0614"}
{"sequence": "CAGAGAGG", "PBM E-score": "inactive: -0.107"}
{"sequence": "GTGCACGA", "PBM E-score": "inactive: 0.109"}
{"sequence": "GGCCGTCA", "PBM E-score": "inactive: -0.215"}
{"sequence": "GAAATCTC", "PBM E-score": "inactive: -0.121"}
{"sequence": "CTCTTGGA", "PBM E-score": "inactive: 0.00091"}
{"sequence": "CCAGGGAG", "PBM E-score": "inactive: -0.276"}
{"sequence": "ATTGACTA", "PBM E-score": "inactive: 0.022"}
{"sequence": "CCGCCTCA", "PBM E-score": "inactive: -0.276"}
{"sequence": "CCTGCGCG", "PBM E-score": "inactive: -0.185"}
{"sequence": "CATCCTTA", "PBM E-score": "inactive: 0.0386"}
{"sequence": "AGAAGGGG", "PBM E-score": "inactive: -0.22"}
{"sequence": "ACGTTAAC", "PBM E-score": "inactive: 0.0983"}
{"sequence": "CGAAGATA", "PBM E-score": "inactive: -0.00211"}
{"sequence": "ACATTCAC", "PBM E-score": "inactive: 0.135"}
{"sequence": "GTCTCCCA", "PBM E-score": "inactive: -0.128"}
{"sequence": "ACGCTCTG", "PBM E-score": "inactive: -0.0858"}
{"sequence": "CCACCATA", "PBM E-score": "inactive: -0.0884"}
{"sequence": "ATTTGATG", "PBM E-score": "inactive: 0.0738"}
{"sequence": "AGCACACA", "PBM E-score": "inactive: 0.0184"}
{"sequence": "CTGCACAA", "PBM E-score": "inactive: 0.0308"}
{"sequence": "CAACCGAC", "PBM E-score": "inactive: 0.0158"}
{"sequence": "AGGATCTC", "PBM E-score": "inactive: -0.0331"}
{"sequence": "AAACACTC", "PBM E-score": "inactive: 0.134"}
{"sequence": "AGGAGTCC", "PBM E-score": "inactive: -0.179"}
{"sequence": "CTTCGTGA", "PBM E-score": "inactive: -0.0613"}
{"sequence": "ATGGGTGC", "PBM E-score": "inactive: -0.00717"}
{"sequence": "CCGAGTTA", "PBM E-score": "inactive: 0.0182"}
{"sequence": "ACCCGGCT", "PBM E-score": "≥ -0.141"}
{"sequence": "GACGGCCC", "PBM E-score": "inactive: -0.29"}
{"sequence": "TCGGCACA", "PBM E-score": "inactive: -0.0477"}
{"sequence": "ATCATCCG", "PBM E-score": "inactive: 0.0593"}
{"sequence": "AAGCAGGC", "PBM E-score": "inactive: -0.15"}
{"sequence": "CTGTTCCA", "PBM E-score": "inactive: 0.133"}
{"sequence": "GACTGTTA", "PBM E-score": "inactive: 0.0636"}
{"sequence": "TCTGCACA", "PBM E-score": "≥ 0.0547"}
{"sequence": "GGATCGGA", "PBM E-score": "inactive: 0.0204"}
{"sequence": "GAATGGAA", "PBM E-score": "inactive: 0.0108"}
{"sequence": "TGCAAGAA", "PBM E-score": "inactive: -0.0555"}
{"sequence": "CCTCCGAG", "PBM E-score": "inactive: -0.22"}
{"sequence": "CCAGAGGA", "PBM E-score": "inactive: -0.169"}
{"sequence": "AAATCAGG", "PBM E-score": "inactive: 0.0748"}
{"sequence": "CCGAACGC", "PBM E-score": "inactive: -0.158"}
{"sequence": "ACACGAGG", "PBM E-score": "inactive: 0.111"}
{"sequence": "GATGGTCA", "PBM E-score": "inactive: -0.0573"}
{"sequence": "AAGGGTAA", "PBM E-score": "inactive: 0.0256"}
{"sequence": "CGAAATCG", "PBM E-score": "inactive: -0.109"}
{"sequence": "CTGAACAA", "PBM E-score": "inactive: 0.229"}
{"sequence": "CTTAGATC", "PBM E-score": "inactive: 0.0341"}
{"sequence": "ACCAACCC", "PBM E-score": "inactive: -0.0241"}
{"sequence": "CGCTCCCG", "PBM E-score": "inactive: -0.229"}
{"sequence": "CTGTGCCA", "PBM E-score": "inactive: -0.0558"}
{"sequence": "CGCGCCGC", "PBM E-score": "inactive: -0.215"}
{"sequence": "CATGGACG", "PBM E-score": "inactive: 0.0426"}
{"sequence": "AGAATTAT", "PBM E-score": "inactive: 0.108"}
{"sequence": "ACAGCTGA", "PBM E-score": "inactive: -0.0257"}
{"sequence": "ACGTCGGA", "PBM E-score": "inactive: -0.0828"}
{"sequence": "CTAAGCTA", "PBM E-score": "inactive: -0.045"}
{"sequence": "AAGTCACC", "PBM E-score": "inactive: 0.0213"}
{"sequence": "AGGTTCAG", "PBM E-score": "inactive: -0.00097"}
{"sequence": "CTTCCTCC", "PBM E-score": "inactive: -0.176"}
{"sequence": "CTTAAAAA", "PBM E-score": "inactive: -0.0281"}
{"sequence": "AACGCGTG", "PBM E-score": "inactive: -0.00042"}
{"sequence": "GGAGCTGA", "PBM E-score": "inactive: -0.104"}
{"sequence": "AGTCGGGC", "PBM E-score": "inactive: -0.154"}
{"sequence": "ACTGCTCC", "PBM E-score": "inactive: -0.136"}
{"sequence": "CGCAGGCC", "PBM E-score": "inactive: -0.227"}
{"sequence": "GAAACGGA", "PBM E-score": "inactive: -0.00942"}
{"sequence": "GGCCACAA", "PBM E-score": "inactive: -0.155"}
{"sequence": "CGAAGCCC", "PBM E-score": "inactive: -0.228"}
{"sequence": "AAGCAGTG", "PBM E-score": "inactive: -0.0544"}
{"sequence": "ATATGAGG", "PBM E-score": "inactive: -0.0316"}
{"sequence": "ATTGTCGC", "PBM E-score": "inactive: 0.0728"}
{"sequence": "CGCGCGTC", "PBM E-score": "inactive: -0.108"}
{"sequence": "CGCAGCGA", "PBM E-score": "inactive: -0.0492"}
{"sequence": "ACGAAAAA", "PBM E-score": "inactive: 0.0766"}
{"sequence": "CCTCTATA", "PBM E-score": "inactive: -0.0172"}
{"sequence": "CCCCGCAG", "PBM E-score": "inactive: -0.269"}
{"sequence": "CTCGAGGC", "PBM E-score": "inactive: -0.18"}
{"sequence": "AAAGCTAG", "PBM E-score": "inactive: -0.0179"}
{"sequence": "CGGCTAAG", "PBM E-score": "inactive: -0.116"}
{"sequence": "GGGTCCCA", "PBM E-score": "inactive: -0.168"}
{"sequence": "CCGGCACG", "PBM E-score": "inactive: -0.158"}
{"sequence": "CGGCCAGA", "PBM E-score": "inactive: -0.189"}
{"sequence": "ACTGTATG", "PBM E-score": "inactive: 0.133"}
{"sequence": "GGTGACTA", "PBM E-score": "inactive: 0.0115"}
{"sequence": "AACCCATT", "PBM E-score": "inactive: -0.0217"}
{"sequence": "CCTGATGC", "PBM E-score": "inactive: -0.103"}
{"sequence": "ACGGCTAG", "PBM E-score": "inactive: -0.161"}
{"sequence": "ATACCCAG", "PBM E-score": "inactive: -0.0527"}
{"sequence": "ATTGAACA", "PBM E-score": "inactive: 0.253"}
{"sequence": "CCCGAGAA", "PBM E-score": "inactive: -0.101"}
{"sequence": "AGGTGACG", "PBM E-score": "inactive: -0.103"}
{"sequence": "AAGAGTCG", "PBM E-score": "inactive: -0.0381"}
{"sequence": "ATATAACG", "PBM E-score": "inactive: 0.153"}
{"sequence": "CGTACGGC", "PBM E-score": "inactive: -0.0888"}
{"sequence": "CAATATAA", "PBM E-score": "inactive: 0.15"}
{"sequence": "TGCGAGCA", "PBM E-score": "≥ -0.0483"}
{"sequence": "CGTGTAGA", "PBM E-score": "inactive: 0.29"}
{"sequence": "CACGTCAC", "PBM E-score": "inactive: 0.0784"}
{"sequence": "GGGATCCA", "PBM E-score": "inactive: -0.123"}
{"sequence": "AATCGCGC", "PBM E-score": "inactive: -0.0555"}
{"sequence": "AAAATTCG", "PBM E-score": "inactive: 0.0694"}
{"sequence": "ACCCTTAT", "PBM E-score": "inactive: 0.0224"}
{"sequence": "CCCCCGGA", "PBM E-score": "inactive: -0.248"}
{"sequence": "GAAGCAAC", "PBM E-score": "inactive: -0.0181"}
{"sequence": "CGCGGTGA", "PBM E-score": "inactive: -0.106"}
{"sequence": "GCGAAATA", "PBM E-score": "inactive: 0.0256"}
{"sequence": "AAAACATC", "PBM E-score": "inactive: 0.305"}
{"sequence": "CAACAGAG", "PBM E-score": "inactive: 0.0219"}
{"sequence": "AACGCGTC", "PBM E-score": "inactive: -0.0224"}
{"sequence": "CCATTCCA", "PBM E-score": "inactive: -0.0346"}
{"sequence": "CTGGGAGC", "PBM E-score": "inactive: -0.147"}
{"sequence": "AGGAGGGC", "PBM E-score": "inactive: -0.17"}
{"sequence": "CGGAGACA", "PBM E-score": "inactive: 0.0201"}
{"sequence": "CCATACCC", "PBM E-score": "inactive: -0.155"}
{"sequence": "GGCACCGA", "PBM E-score": "inactive: -0.0667"}
